Measurements reported in paper PMC4468025 (Biochemical pharmacology, 2015).

How the values were obtained:
[1] = tested on: CHO DG44 cells; assay: Cytotoxicity assay; assay type: cell-based, Chinese hamster; details: 24 h
[2] = tested on: CHO DG44, HT1080 and RAW267.7 cells; assay: Cytotoxicity, cell line not specified / variety of cell lines; assay type: cell-based
[3] = tested on: HT1080 cells; assay: Cytotoxicity in HT1080 cells; assay type: cell-based, human; details: 100 µM, data not shown
[4] = tested on: cells; details: cited from earlier work

Compound | cytotoxicity in CHO cells (in words) ([1]; 100 µM) | cell toxicity (in words) ([2]; […]) | cytotoxicity in HT1080 cells (in words) [3] | cell toxicity (in words) ([2]; 10 µM, a variety of cell lines) | cytotoxicity in CHO cells (in words) ([1]; 10 µM) | cell toxicity (in words) [4]
N=C(N)Nc1ccc(O[C@@H]2CCC[C@H](Oc3ccc(NC(=N)N)cc3)C2)cc1 [2b, cis-1,3-bis(4-guanidinophenoxy)cyclohexane] | slight or modest cell toxicity | toxic at high doses | – | – | – | –
N=C(N)Nc1ccc(OC2CC(Oc3ccc(NC(=N)N)cc3NC(=N)N)C(NC(=N)N)CC2NC(=N)N)cc1 (stereo not drawn) [compound 1b, 1,1'-(4-((2,4-diguanidino-5-(4-guanidinophenoxy)cyclohexyl)oxy)-1,3-phenylene)diguanidine] | negligible toxicity | – | negligible toxicity | none of which displayed significant cell toxicity | – | –
N=C(N)Nc1ccc(OC2CC(Oc3ccc(NC(=N)N)cc3)C(NC(=N)N)CC2NC(=N)N)cc1 (stereo not drawn) [compound 1g, 1,1'-(4,6-bis(4-guanidinophenoxy)cyclohexane-1,3-diyl)diguanidine] | negligible toxicity | – | negligible toxicity | none of which displayed significant cell toxicity | – | –
N=C(N)Nc1ccc(OCCCOc2ccc(NC(=N)N)cc2)cc1 [compound 2a, 1,3-bis(4-guanidinophenoxy)propane] | slight or modest cell toxicity | toxic at high doses | – | – | – | –
N=C(N)Nc1ccc(Oc2cccc(Oc3ccc(NC(=N)N)cc3)c2)cc1 [compound 2c, 1,3-bis(4-guanidinophenoxy)benzene] | highly toxic | toxic at high doses | not viable | – | slightly toxic | –
N=C(N)Nc1ccc(Oc2cccc(Oc3ccc(NC(=N)N)cc3NC(=N)N)c2)c(NC(=N)N)c1 [compound 2f, 1,3-bis(2,4-diguanidinophenoxy)benzene] | slight or modest cell toxicity | low cell toxicity | – | none of which displayed significant cell toxicity | – | –
dec-RVKR-CMK | – | – | – | – | – | significant cell toxicity
